# In patent publication US9902766B2, “Antibodies to endoplasmin and their use” (University of Pittsburgh—Of The Commonwealth System of …, priority 2010, dated 2018):
# “Also recorded” adds a separate entry of the source.
# B1: scFv W9: human scFv fragment isolated from a synthetic phage scFv library by panning with melanoma cell line WM1158; binds endoplasmin (Grp94) (antibody, V domains shown)
# VH: QVQLVQSGAEVKKPGASVKVSCKASGYTFTSYAMHWVRQAPGQRLEWMGWINAGNGNTKYSQKFQGRVTITRDTSASTAYMELSSLRSEDTAVYYCARAHFDYWGQGTLVTVS
# VL: EIELTQSPSSLSASVGDRVTIT[omitted - about 80 residues]FGQGTKVEIK
# modifications: left off: another chain or arm of the molecule; small tags and cut ends
# Assays:
# [1] = tested on: panel of human cell lines; test: cell ELISA of soluble scFv W9 with a panel of human cell lines; format: binding
# Method: FIG. 1B. Differential reactivity with the melanoma cell line WM1158 and with the B lymphoid cell line LG2 of the scFv W9 isolated by panning a phage display antibody library with WM1158 cells. WM1158 cells were plated in a 96-well plate and incubated with scFv W9 for 2 hours at room temperature.
# FIG. 2. Reactivity of scFv W9 with many types of human cell lines. Six melanoma, four breast, one head and neck squamous cell, three pancreas, one bladder, one lung, one epithelial, one colon, one renal, one prostate, and one ovarian cancer cell lines were plated in a 96-well plate and incubated with scFv W9 for 2 hours at room temperature. The binding of scFv was detected using c-myc-specific mAb 9E10 and HPR-streptavidin. scFv W9 reacted with all the melanoma cell lines, with two breast cancer cell lines, and with head and neck squamous cell, pancreas, bladder, lung, epithelial, renal, ovarian and glioma cancer cell lines.
# (§1) Results are expressed as absorbance of optical density (O.D.) at 450 nm.
# The synthetic phage scFv library (#1) was subjected to four rounds of panning with WM1158 cells. Isolated phages were absorbed with cultured human LG-2 B lymphoid cells to remove the phages binding to the Ags shared by human cells. Soluble scFvs were produced from 80 clones and tested for reactivity with melanoma cells in a cell ELISA. […] The reactivity was specific since no reactivity with LG-2 cells was detected. The scFv #119, which recognizes an irrelevant antigen, was used as a negative control (FIG. 1).
# When tested by ELISA with a panel of human cell lines, the soluble scFv W9 reacted with melanoma (MV3, COLO38, SK-MEL-28, M14, FO-1), basal breast cancer (SUM149, MDA-MB-435s), head and neck (PCI-13), pancreatic (PANC 2.03, PANC 3.27, PANC 10.05), bladder (T24), lung (A549), epidermoid (A431), cervical (HeLa), renal (SLR21), ovarian (OVCAR3), and glioma (U-138, A-172) cancer cell lines.
# normal tissues = test: immunohistochemical analysis of scFv W9 immunoreactivity with normal tissues; format: binding, human; conditions: biopsies of at least two patients
# Excerpt: The results from an immunohistochemical analysis of scFv W9 immunoreactivity with normal tissues is presented below. Results are related to biopsies of at least two patients tested (+Positive).
# COLO38 cells = test: ELISA binding of scFv W9 to tunicamycin treated cells; parameters: species or system human; conditions: tunicamycin 0.5 μg/ml, 72 hours, DMSO alone as control
# Method: FIG. 4. Role of carbohydrates in the expression of the determinant recognized by scFv W9. COLO38 cells were cultured for 72 hours in the presence of 0.5 μg/ml of tunicamycin. Cells incubated in medium with DMSO alone, and the mAb TP25.99 were used as controls. Cells were tested by ELISA for the binding of scFv W9. Cells were incubated with scFv W9 for 2 hours at 4° C. The binding of scFv was detected using mAb 9E10 and HPR-goat anti-mouse IgG antibodies. […] Thus, carbohydrates play a role in the expression of the determinant recognized by scFv W9.
# COLO38 cells were cultured in the presence of 0.5 μg/ml of tunicamycin (MP Biomedicals, Solon, Ohio, USA) for 72 hours at 37° C. in a 5% CO2 atmosphere. Cells incubated in medium with DMSO alone were used as a control.
# [2] = biological target: T1, recombinant canine Endoplasmin (Grp94) (Canis lupus familiaris, UniProt P41148); test: ELISA reactivity with recombinant canine endoplasmin (Grp94); format: binding
# T1 construct: purchased Stressgen Biothecnology Corporation (Victoria, British Columbia, Canada)
# T1 sequence (P41148 22-804): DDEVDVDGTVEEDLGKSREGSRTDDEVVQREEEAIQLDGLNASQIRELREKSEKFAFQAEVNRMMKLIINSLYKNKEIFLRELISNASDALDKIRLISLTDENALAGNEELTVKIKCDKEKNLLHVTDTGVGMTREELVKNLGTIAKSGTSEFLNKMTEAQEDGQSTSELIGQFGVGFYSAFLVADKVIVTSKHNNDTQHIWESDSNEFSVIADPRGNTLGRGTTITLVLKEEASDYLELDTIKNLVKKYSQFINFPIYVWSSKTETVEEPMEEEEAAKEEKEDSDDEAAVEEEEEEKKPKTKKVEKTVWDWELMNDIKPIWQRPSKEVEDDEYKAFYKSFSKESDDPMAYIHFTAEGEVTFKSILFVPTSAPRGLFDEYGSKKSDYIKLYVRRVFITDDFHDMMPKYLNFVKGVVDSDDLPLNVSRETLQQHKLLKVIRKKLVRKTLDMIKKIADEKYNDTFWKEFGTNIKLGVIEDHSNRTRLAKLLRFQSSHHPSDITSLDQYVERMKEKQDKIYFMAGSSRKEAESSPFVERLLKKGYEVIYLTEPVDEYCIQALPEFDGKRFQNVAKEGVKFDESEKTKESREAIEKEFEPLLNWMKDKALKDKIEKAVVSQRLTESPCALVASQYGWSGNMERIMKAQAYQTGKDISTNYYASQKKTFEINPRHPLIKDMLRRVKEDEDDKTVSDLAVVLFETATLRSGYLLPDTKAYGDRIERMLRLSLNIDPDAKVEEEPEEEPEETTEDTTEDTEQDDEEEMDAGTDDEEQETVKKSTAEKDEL
# Excerpt: FIGS. 5A and 5B. […] The binding of scFv was detected using mAb 9E10 and HPR-goat anti-mouse IgG antibodies. Absorbance was read at 450 nm scFv 119 and BSA were used as negative controls. scFv W9 recognizes a determinant of endoplasmin expressed on the cell membrane.
# as §1
# FO-1 cells = test: flow cytometry binding of scFv W9 to cells transduced with Grp94 shRNA; parameters: species or system human; conditions: 72 hours after transduction, compared with control shRNA
# Method: FIGS. 8A and 8B. […] Cells were incubated with scFv W9 and mAb 9E10, followed by incubation with FITC-goat anti-mouse IgG antibodies.
# After 72 hours from transduction cells were harvested, incubated with scFv W9 and mAb 9E10, followed by incubation with FITC-goat anti-mouse IgG antibodies. Cells were analyzed by flow cytometry.
molecule,measurement,setting,value
B1,reactivity in cell ELISA,[1]; 40-16 colon cancer cell line,did not react
same,reactivity in cell ELISA,[1]; A431 epidermoid cancer cell line,reacted
same,reactivity in cell ELISA,[1]; A549 lung cancer cell line,reacted
same,reactivity in cell ELISA,[1]; A-172 glioma cell line,reacted
same,reactivity in cell ELISA,[1]; COLO38 melanoma cell line,reacted
same,reactivity in cell ELISA,[1]; Du145 prostate cancer cell line,did not react
same,reactivity in cell ELISA,[1]; FO-1 melanoma cell line,reacted
same,reactivity in cell ELISA,[1]; HeLa cervical cancer cell line,reacted
same,reactivity in cell ELISA,[1]; LG-2 B lymphoid cell line,did not react
same,reactivity in cell ELISA,"[1]; LG-2 B lymphoid cell line, listed as scFv named W9",no reactivity
same,reactivity in cell ELISA,[1]; M14 melanoma cell line,reacted
same,reactivity in cell ELISA,[1]; MCF-7 luminal breast cancer cell line,did not react
same,reactivity in cell ELISA,[1]; MDA-MB-435s basal breast cancer cell line,reacted
same,reactivity in cell ELISA,[1]; MV3 melanoma cell line,reacted
same,reactivity in cell ELISA,[1]; OVCAR3 ovarian cancer cell line,reacted
same,reactivity in cell ELISA,[1]; PANC 2.03 pancreatic cancer cell line,reacted
same,reactivity in cell ELISA,[1]; PANC 3.27 pancreatic cancer cell line,reacted
same,reactivity in cell ELISA,[1]; PANC 10.05 pancreatic cancer cell line,reacted
same,reactivity in cell ELISA,[1]; PCI-13 head and neck cancer cell line,reacted
same,reactivity in cell ELISA,[1]; SK-MEL-28 melanoma cell line,reacted
same,reactivity in cell ELISA,[1]; SLR21 renal cancer cell line,reacted
same,reactivity in cell ELISA,[1]; SUM149 basal breast cancer cell line,reacted
same,reactivity in cell ELISA,[1]; T24 bladder cancer cell line,reacted
same,reactivity in cell ELISA,[1]; T47D luminal breast cancer cell line,did not react
same,reactivity in cell ELISA,[1]; U-138 glioma cell line,reacted
same,reactivity in cell ELISA,[1]; WM1158 melanoma cell line,reacts specifically
same,reactivity in cell ELISA,"[1]; WM1158 melanoma cell line, listed as scFv named W9",strongly reacted
same,immunoreactivity with normal tissue (IHC),normal tissues; Brain Cortex,negative
same,immunoreactivity with normal tissue (IHC),normal tissues; Breast,negative
same,immunoreactivity with normal tissue (IHC),normal tissues; Colon-rectum,negative
same,immunoreactivity with normal tissue (IHC),normal tissues; Kidney,negative
same,immunoreactivity with normal tissue (IHC),normal tissues; Liver,negative
same,immunoreactivity with normal tissue (IHC),normal tissues; Lung,negative
same,immunoreactivity with normal tissue (IHC),normal tissues; Pancreas,negative
same,immunoreactivity with normal tissue (IHC),normal tissues; Parotid,acinar epithelium only: +
same,immunoreactivity with normal tissue (IHC),normal tissues; Prostate,negative
same,immunoreactivity with normal tissue (IHC),normal tissues; Skin,sweat gland only: +
same,immunoreactivity with normal tissue (IHC),normal tissues; Spleen,negative
same,immunoreactivity with normal tissue (IHC),normal tissues; Stomach,negative
same,immunoreactivity with normal tissue (IHC),normal tissues; Testis,negative
same,immunoreactivity with normal tissue (IHC),normal tissues; Thyroid,negative
same,binding to cells cultured with tunicamycin (ELISA),COLO38 cells,strong decrease; also recorded: markedly reduced; also recorded: did not react
same,binding to BSA (ELISA),[2]; BSA negative control antigen,no binding
same,reactivity with endoplasmin (Grp94) canine recombinant protein (ELISA),"[2]; RC-Grp94 immobilized at 20 μg/well, 2 hours room temperature, dose dependent",specifically reacted
same,effect of Grp94 shRNA on binding of scFv W9 (flow cytometry),FO-1 cells,significantly inhibited
